From article PMC4336329 (PLoS ONE, 2015)
Among all 310,000 compounds or so, about 14,000 (4.5%) showed an effect of 50% or more. The effect is printed as a negative number. This is one part of the list.

Each compound was assayed against human ether-à-go-go-related gene (hERG) potassium channel (human, UniProt Q12809) (assay: primary screen, population patch clamp on CHO cells stably expressing hERG).
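Note: peak tail current of the secondary pulse compared with the same well before compound.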

Chain of human ether-à-go-go-related gene (hERG) potassium channel (Q12809 whole entry, looked up): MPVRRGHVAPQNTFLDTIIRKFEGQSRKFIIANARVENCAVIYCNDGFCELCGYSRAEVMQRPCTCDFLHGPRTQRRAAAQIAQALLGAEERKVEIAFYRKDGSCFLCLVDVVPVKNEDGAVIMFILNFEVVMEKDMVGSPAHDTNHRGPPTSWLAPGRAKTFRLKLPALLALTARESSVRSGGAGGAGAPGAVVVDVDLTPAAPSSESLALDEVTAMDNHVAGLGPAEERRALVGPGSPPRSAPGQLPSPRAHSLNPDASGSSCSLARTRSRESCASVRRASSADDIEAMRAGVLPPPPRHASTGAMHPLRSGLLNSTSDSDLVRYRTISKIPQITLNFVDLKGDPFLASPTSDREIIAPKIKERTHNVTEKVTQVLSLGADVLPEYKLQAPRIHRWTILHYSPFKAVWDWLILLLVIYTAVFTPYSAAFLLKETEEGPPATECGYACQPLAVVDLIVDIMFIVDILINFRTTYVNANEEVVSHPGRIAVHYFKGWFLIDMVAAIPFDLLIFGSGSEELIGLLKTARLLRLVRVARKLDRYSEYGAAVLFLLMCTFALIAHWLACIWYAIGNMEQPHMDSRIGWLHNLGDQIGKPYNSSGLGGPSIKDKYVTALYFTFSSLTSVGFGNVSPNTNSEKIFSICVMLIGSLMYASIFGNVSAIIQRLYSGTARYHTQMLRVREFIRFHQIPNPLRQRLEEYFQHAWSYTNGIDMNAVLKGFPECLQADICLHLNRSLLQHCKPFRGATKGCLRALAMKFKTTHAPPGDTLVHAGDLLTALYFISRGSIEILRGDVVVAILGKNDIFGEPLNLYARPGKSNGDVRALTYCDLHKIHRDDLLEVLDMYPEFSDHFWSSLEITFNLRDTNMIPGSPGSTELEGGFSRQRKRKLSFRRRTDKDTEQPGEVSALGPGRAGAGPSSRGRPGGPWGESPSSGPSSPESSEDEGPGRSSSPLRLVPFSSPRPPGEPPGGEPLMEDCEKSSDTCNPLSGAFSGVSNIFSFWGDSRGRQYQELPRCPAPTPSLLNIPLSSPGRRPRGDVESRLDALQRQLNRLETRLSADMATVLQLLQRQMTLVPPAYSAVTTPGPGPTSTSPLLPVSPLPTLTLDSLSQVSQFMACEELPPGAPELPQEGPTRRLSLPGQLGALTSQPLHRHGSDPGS

Point of comparison: Cc1cc(C(F)(F)F)nc(-n2cc(-c3ccccc3)nn2)n1, “hERG current change (%, negative = inhibition) at 10uM” value 4.21%. Against it:
- CCOc1ccc(N2C(=O)CC(N(CCc3ccc(OC)cc3)C(=O)c3cccc(F)c3)C2=O)cc1 (centres unmarked) — lower, -63%
- COc1ccc(Nc2nc(N)nc(CSc3n[nH]c(-c4ccccc4)n3)n2)cc1 — lower, -4.25%
- CCCC(CCC)C(=O)OC[N+](C)(C)CCOC(=O)C(O)(c1ccccc1)C1CCCC1.[Cl-] (centres unmarked) — lower, -5.4%
- CC(=O)CCc1ccc(OCC(O)CNCCOc2ccc(C)cc2)cc1 (centres unmarked) — lower, -55.9%
- O=C1CSC(=S)N1c1cccc(F)c1 — higher, 18.3%
- COC(=O)[C@@H]1C[C@H]2CC[C@H](O)C[C@H]2N1Cc1ccc(Cl)cc1 — higher, 5.3%
- [Br-].c1ccc(C[n+]2ccc3ccccc3c2)cc1 — lower, 1.66%
- COc1cc(C(=O)N(CCc2ccccc2)C2=CC3CCC(C2)N3C)cc(OC)c1OC.Cl.O (centres unmarked) — lower, -29.2%
- COCCCNC(=O)CCn1c(=O)c2ccccc2n(CC(=O)NCCC2=CCCCC2)c1=O — higher, 18.5%
- CCCCCCCCCC(=O)NNC(=O)c1c(O)c2ccccc2n(CCC)c1=O — higher, 32%
- COc1ccccc1Nc1nnc(SCC(=O)Nc2cc(C)on2)s1 — lower, 0.814%
- CCOc1ccc(S(=O)(=O)NCc2ccco2)c2ccccc12 — lower, -5.08%
- N=C1/C(=C/c2ccc(-c3cccc(C(=O)O)c3)o2)C(=O)N=C2SC(CC(=O)N3CCOCC3)=NN12 — higher, 10.9%
- CCCCCCCC1(C)NC(=O)N(c2ccccc2)N1 (centres unmarked) — higher, 4.43%
- O=C(Nc1cccc(C(=O)N2CCOCC2)c1)c1cncc(Br)c1 — higher, 6.33%
- O=C(CN(Cc1ccccc1Cl)C(=O)c1csnn1)NCc1ccc(F)cc1 — lower, -50.4%
- CCOC(=O)c1ccc(-[n+]2c(-c3ccccc3)cc(-c3ccccc3)cc2-c2ccccc2)cc1.[O-][Cl+3]([O-])([O-])[O-] — lower, -77.9%
- COc1ccc(OC)c(/C=N/NC(=O)c2ccc(Cn3cc([N+](=O)[O-])cn3)o2)c1 — lower, 1.58%
- COc1ccc(-c2nnn(CC(=O)N3CCN(c4ccccc4OC)CC3)n2)cc1 — lower, 0.349%
- Cl.Oc1ccc(Nc2ncnc3c2oc2ccccc23)cc1 — lower, -4.8%
- COc1cc2c(cc1OC)C(COc1ccc(F)cc1)NCC2 (centres unmarked) — lower, -26.8%
- O=C(Nc1ccc(N2CCOCC2)c2nonc12)C1CCCC1 — lower, 3.34%
- CC(=O)Nc1sc2c(c1C#N)CCC(C)C2 (centres unmarked) — lower, -3.48%
- Cc1ccc(C)c(N2CCN(C(=O)Cc3cn(C)c4ccccc34)CC2)c1 — higher, 5.99%
- COc1ccc(CCNC(=O)c2cc([N+](=O)[O-])cc([N+](=O)[O-])c2)cc1OC — higher, 12%
- CCCn1c(O)c(N=NC(=O)c2ccco2)c2ccccc21 — lower, -1.01%
- COc1cccc(C2NC(=O)CCC2[N+](=O)[O-])c1OC (centres unmarked) — higher, 14.4%
- Cc1nn2c(=O)cc(CSc3ccccc3NC(=O)c3ccccc3F)nc2s1 — lower, -3.29%
- CCOC(=O)C(=O)NN=C(c1ccccc1)c1ccccc1 — higher, 9.79%
- O=C(O)CSCC(=O)Nc1ccc(Br)c(C(F)(F)F)c1 — higher, 15%
- COc1ccccc1NC(=S)NC(=O)CCCOc1ccc(Cl)cc1Cl — higher, 18.2%
- O=C(COc1ccccc1)N1CCN(Cc2c[nH]c3ccccc23)CC1 — lower, -47.4%
- CC(C)(C)c1ccc(C(=O)N2CCCN(C(=O)c3ccc(C(C)(C)C)cc3)CC2)cc1 — lower, -10.2%
- COc1ccc(OC)c(S(=O)(=O)Nc2ccc3oc(C)c(C(C)=O)c3c2)c1 — lower, -0.667%
- CC(=O)Oc1ccc(N(C(C)=O)S(=O)(=O)c2ccc(C)c([N+](=O)[O-])c2)cc1 — higher, 11.6%
- COc1ccc(OCC(O)CN2CCN(c3ncccn3)CC2)cc1.Cl (centres unmarked) — lower, -17.8%
- O=c1[nH]cccc1-c1nc2ccccc2n1Cc1ccccc1F — higher, 4.82%
- CN1C(=O)C(C)(C)c2cc(S(=O)(=O)N3CCCCCC3)ccc21 — lower, 2.44%
- Cc1ccc(Sc2ccc(C(=O)NC(C)C)cc2[N+](=O)[O-])cc1 — higher, 7.05%
- O=C(CS(=O)(=O)c1ccccc1)N1CCN(c2ccccc2)CC1 — lower, 2.36%
- Cc1ccccc1NC(=O)C1Cc2ccccc2CN1C(=O)c1ccco1 (centres unmarked) — lower, -2.82%
- COc1cccc(CN(C)C(=O)CNC(=O)c2sc3ccccc3c2Cl)c1OC — lower, -11.1%
- COc1ccc(N=Cc2[nH]c3ccccc3c2O)cc1 — higher, 13.2%
- CCOc1cc(C2C(C(=O)OC)=C(C)N=C3SCCC(=O)N32)ccc1OC(C)=O (centres unmarked) — higher, 10.3%
- NC(N)=N/N=C/c1cc([N+](=O)[O-])ccc1O — lower, -4.41%
- CC(=O)c1cccc(NC(=O)N2CCCC2C(=O)Nc2ccccc2C)c1 (centres unmarked) — lower, -2.6%
- Cc1cc(C(=O)NNC(=O)/C=C/c2ccccc2Cl)c(C)o1 — higher, 24.9%
- CN(C)c1nc(SCC(=O)Nc2ccccc2)nc(N2CCOCC2)n1 — higher, 12.5%
- O=C(NC1CCCC1)C(=O)N(Cc1cccnc1)C(C(=O)NC1CCCC1)c1ccco1 (centres unmarked) — higher, 19.6%
- Cc1ccc(CCN2CC(C(=O)NCc3cccnc3)CC2=O)cc1 (centres unmarked) — lower, -1.22%
- COCC(=O)N1CCC(Oc2ccc(C(=O)N(C)C3CCCCC3)cc2)CC1 — higher, 15.7%
- O=C(CN1CCN(Cc2ccccc2)CC1)Nc1ccccc1 — lower, -26.9%
- C#CCn1cc(/C=N/NC(=O)c2cc3ccccc3o2)c2ccccc21 — lower, -0.0638%
- COc1cccc(NC(=O)C2C3C=CC4(O3)C2C(=O)N(CCCN2CCCC(C)C2)C4C(=O)NC2CCCCC2C)c1 (centres unmarked) — higher, 9.9%
- COc1cc(C2c3[nH]c4ccccc4c3C[C@@H]3C(=O)N(Cc4ccco4)CC(=O)N23)cc(OC)c1OC (some centres unmarked) — lower, -13.9%
- COc1ccc(NC(=O)N2CCn3c2nc2ccccc23)cc1 — lower, -11.6%
- Cc1cc(C(=O)COC(=O)CCCN2C(=O)c3ccccc3C2=O)c(C)n1C — lower, -11.6%
- COc1ccc(-c2n[nH]c(=S)n2/N=C/C=C\c2ccccc2OC)cc1 — higher, 15.4%
- Cc1c(C(=O)/C=C/N(C)C)nnn1-c1ccc(Cl)c(Cl)c1 — lower, -10.4%
- Cn1c(=O)[nH]c(=O)c2c1nc(NCCCn1ccnc1)n2Cc1cccc(Br)c1 — lower, -6.39%
- COc1cccc(NS(=O)(=O)c2cc(C)sc2C)c1 — lower, 2.94%
- O=C(c1cn(Cc2ccccc2)nc1-c1cccnc1)N1CCN(Cc2c(F)cccc2Cl)CC1 — lower, -4.33%
- Cc1occc1-c1n[nH]c(=S)n1-c1ccccc1 — higher, 6.26%
- C[C@H](NS(=O)(=O)c1ccc(Cl)cc1)C(=O)OCC(=O)NC(=O)Nc1ccc2c(c1)OCCO2 — lower, -0.0565%
- CCc1cccc2c(=O)c(C(=O)N3CCOCC3)c[nH]c12 — lower, -1.15%
- Cc1cc(=O)n(-c2ccccc2)n1-c1ccccc1 — lower, -3.77%
- CCCCCCCSc1cc(OC)c(CCN(C)C)cc1OC.O=C(O)/C=C\C(=O)O — lower, -64.3%
- CC1=CC(C)(C)n2c(O)c(N=NC(N)=S)c3cccc1c32 — lower, -2.06%
- OCC1(CC2CCCCO2)CCN(C/C=C/c2ccccc2)CC1 (centres unmarked) — lower, -46%
- O=C(CCCCCNC(=O)c1ccccc1)N/N=C/c1ccc(O)cc1O — lower, 2.79%
- O=C1C2C3C=CC(CC3)C2C(=O)N1c1ccc2c(c1)OCO2 (centres unmarked) — higher, 13.6%
- COC(=O)/C(=C\C(=O)c1ccc([N+](=O)[O-])cc1)Nc1ccc(OC)cc1 — higher, 6.44%
- CCCCCOc1ccc(Br)cc1/C(C)=N/NC1=NCCN1 — lower, -70.1%
- COc1cc(NC(=O)C2C3C=CC(C3)C2C(=O)O)ccc1NC(=O)c1ccccc1 (centres unmarked) — higher, 13.7%
- CCN1CCN(c2nc3ccccn3c(=O)c2C=O)CC1 — lower, -7.28%
- O=C(Nc1cccc2ccccc12)N1CCN(Cc2ccccc2)CC1 — lower, -4.23%
- CN1CCC2(CC1)C1CN(C)CC=C1C(C#N)=C(N)C2(C#N)C#N.O.[OH-] (centres unmarked) — higher, 14.1%
- COC(=O)/C=C1/S/C(=N/N=C/c2ccco2)NC1=O — higher, 18.8%
- Cc1ccc(Cl)cc1NC(=O)C1CC(=O)N(C(C)C)C1 (centres unmarked) — higher, 16%
- N#CCCCCn1ccc(NC(=O)c2ccc(Cl)cc2O)n1 — higher, 12.6%
- Br.COc1ccc(C(=O)Cn2c(NCCO)nc3ccccc32)cc1 — higher, 6.25%
- Cc1nn(-c2ccccc2)c(Cl)c1/C=N/NC(=O)c1cccc(S(=O)(=O)N2CCCC2)c1 — higher, 16.1%
- O=C(c1ccccc1)N1CCN(c2ccc([N+](=O)[O-])c(NCc3ccco3)c2)CC1 — lower, -47.2%
- CCCCOC(=O)Nc1nnc(/C=C/c2ccc(OC)cc2)s1 — higher, 5.8%
- Cc1ccc(N(C)S(=O)(=O)c2cccc(C(=O)NCCCN3CCCC3=O)c2)cc1 — lower, -13.3%
